We go through 25 compounds from paper PMC4336329 (PLoS ONE, 2015).

The structures appear in SMILES notation. About 14,000 (4.5%) of roughly 310,000 compounds showed an effect of 50% or more. Effects have a minus sign here. This is one part of the list.
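Note: peak tail current of the secondary pulse compared with the same well before compound.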

The target of this assay is human ether-à-go-go-related gene (hERG) potassium channel (human, UniProt Q12809). Nature of the assay: primary screen, population patch clamp on CHO cells stably expressing hERG.
human ether-à-go-go-related gene (hERG) potassium channel, sequence (Q12809 whole entry, looked up): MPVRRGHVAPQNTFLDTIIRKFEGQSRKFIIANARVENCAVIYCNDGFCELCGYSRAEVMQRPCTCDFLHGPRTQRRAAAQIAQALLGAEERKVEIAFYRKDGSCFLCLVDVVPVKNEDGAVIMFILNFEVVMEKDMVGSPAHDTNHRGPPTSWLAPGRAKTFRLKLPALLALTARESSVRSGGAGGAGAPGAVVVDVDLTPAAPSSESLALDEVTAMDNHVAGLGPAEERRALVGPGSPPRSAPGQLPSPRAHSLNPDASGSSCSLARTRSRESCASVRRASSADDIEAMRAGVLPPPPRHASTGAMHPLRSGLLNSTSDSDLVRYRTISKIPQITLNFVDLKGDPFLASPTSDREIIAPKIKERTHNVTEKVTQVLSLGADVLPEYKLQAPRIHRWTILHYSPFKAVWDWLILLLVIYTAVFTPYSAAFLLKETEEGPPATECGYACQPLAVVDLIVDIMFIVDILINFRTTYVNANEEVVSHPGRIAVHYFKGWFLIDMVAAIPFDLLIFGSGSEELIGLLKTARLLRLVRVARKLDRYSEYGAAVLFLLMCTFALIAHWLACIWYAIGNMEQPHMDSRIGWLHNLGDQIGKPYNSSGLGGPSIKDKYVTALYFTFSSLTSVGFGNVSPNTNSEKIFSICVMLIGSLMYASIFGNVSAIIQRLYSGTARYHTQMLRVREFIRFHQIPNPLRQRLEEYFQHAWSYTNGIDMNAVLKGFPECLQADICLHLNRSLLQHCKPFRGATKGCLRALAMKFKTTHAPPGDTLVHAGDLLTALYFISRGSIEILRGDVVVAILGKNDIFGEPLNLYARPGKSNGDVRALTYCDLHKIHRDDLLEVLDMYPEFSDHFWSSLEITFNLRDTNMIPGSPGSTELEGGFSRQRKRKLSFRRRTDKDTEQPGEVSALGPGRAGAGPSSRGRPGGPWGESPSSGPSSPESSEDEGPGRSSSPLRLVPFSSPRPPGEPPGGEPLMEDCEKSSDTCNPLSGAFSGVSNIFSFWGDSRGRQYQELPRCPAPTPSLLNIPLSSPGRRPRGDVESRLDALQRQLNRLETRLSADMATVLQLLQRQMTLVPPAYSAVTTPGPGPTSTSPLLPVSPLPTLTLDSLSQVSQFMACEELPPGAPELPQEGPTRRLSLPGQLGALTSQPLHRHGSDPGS
Take `COc1ccc(CCNC(=O)c2ccc3c(c2)N(Cc2ccccc2)CCS3)cc1OC`: the “hERG current change (%, negative = inhibition) at 10uM” value stood at 17.1%. Consider `O=C(COC(=O)CCSc1ccc(Cl)cc1)NCc1ccccc1`, for which the “hERG current change (%, negative = inhibition) at 10uM” value was 1.06%. To `O=C(O)c1ccc(/C=C/c2nc3sc4c(c3c(=O)[nH]2)CCC4)cc1` belongs 14.2%; to `Cc1ccc2[nH]cc(S(=O)(=O)c3ccc(F)cc3)c(=O)c2c1`, 15.7%. Turning to `Cc1ccccc1CC1(CO)CCCN(Cc2c(C)nn(C)c2Cl)C1` (stereo not shown), the “hERG current change (%, negative = inhibition) at 10uM” value is -47.2%. To `CCCCCCCCCCOC(=O)C[N+](C)(C)C/C=C(/C)Cl.[Br-]` belongs -33.7%; to `COc1ccc(S(=O)(=O)NC(C(=O)NCCc2ccccn2)C(C)C)cc1` (stereo not shown), 5.69%. For the compound `CC1(C)CC(NS(=O)(=O)OCC(Cl)(Cl)Cl)c2cc(C#N)ccc2O1` (stereo not shown), the “hERG current change (%, negative = inhibition) at 10uM” value turned out to be 17.6%. On to `CC(C)CNC(=O)c1ccccc1-c1ccccc1C(=O)O`, for which the “hERG current change (%, negative = inhibition) at 10uM” value was determined as 19.5%.

For the compound `CN(C)Cc1c(C(=O)N/N=C/c2ccc(-c3ccccc3)cc2)nnn1-c1nonc1N`, the “hERG current change (%, negative = inhibition) at 10uM” value is recorded as -1.78%. To `O=C(c1cccc(S(=O)(=O)N2CCCCCC2)c1)N1CCN(c2ccccc2F)CC1` belongs -58%; to `C=CCn1c(CCC(O)COCCC)n[nH]c1=S` (stereo not shown), 14.2%; to `CC1CCN(Cc2csc(N)n2)CC1`, -1.14%. To `CCCCC(=O)Nc1cccc(NC(=S)NC(=O)Cc2ccccc2)c1` belongs 3.39%. The figure for `O=C(Nc1ccc2c(c1)OCO2)C1(S(=O)(=O)c2ccc(Cl)cc2)CC1` is -26.9%. Take `CC(C)NC(=S)NN=C1CCCCCCCCCCC1`: the “hERG current change (%, negative = inhibition) at 10uM” value is given as 7.36%. Consider `O=c1[nH]c(=O)n(Cc2ccccc2)c(O)c1C=NCCN1CCOCC1`, for which the “hERG current change (%, negative = inhibition) at 10uM” value is 7.22%. To `CC(=O)N1CCCc2cc(S(=O)(=O)CCC(=O)N3CCN(c4ccccc4)CC3)ccc21` belongs 5.9%. To `ON1C(c2ccccc2C(F)(F)F)N(O)[C@H]2CCCC[C@H]21` (stereo partly shown) belongs 11.8%. On to `Cc1cccc(C)c1NC(=O)CSC(=S)N1CCCC1`, for which the “hERG current change (%, negative = inhibition) at 10uM” value worked out at 6.66%. The figure for `Brc1ccccc1CN1CCN(Cc2c[nH]c3ccccc23)CC1.O=C(O)C(=O)O` is -20.1%. Regarding `Cc1cc(C)nc(SCc2nnc(SCc3ccccc3Cl)o2)n1`, the “hERG current change (%, negative = inhibition) at 10uM” value is -24.6%. The figure for `CCO[C@@H]1OC(C(N)=O)=C[C@H](c2ccc3c(c2)OCO3)[C@H]1CCCO` is 4.15%; for `CC(=O)c1ccc(N2CCN(C(=S)NCCCN(C)C)CC2)cc1` it is 2.47%; for `CCNC(=O)CSc1nc(-c2ccccc2)cs1` it is -4.81%.
